In the supplement of paper PMC8728848:
The other results are listed elsewhere or left out.

How the values were obtained:
Experiment in all cases: glycan array binding signal (z-score within array); higher = stronger binding
Conditions in all cases: glycan notation: IUPAC condensed, linker removed
GlcA(b1-6)Gal = target: GlcA(b1-6)Gal
In short: (§1)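 From the Consortium for Functional Glycomics database, 3228 arrays were curated, keeping only those whose protein sequence was available. Binding is given as a within-array Z-score averaged across arrays sharing a protein sequence and across linkers. Negative Z-scores can be read as non-binding.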

[1] = target: GlcA3S(b1-3)Gal(b1-4)GlcNAc(b1-2)Man
In short: as §1

[2] = target: GlcA3S(b1-3)Gal(b1-4)GlcNAc(b1-3)Gal(b1-4)Glc
In short: as §1

[3] = target: GlcNAc(a1-3)Gal(b1-4)GlcNAc
In short: as §1

[4] = target: GlcNAc(a1-4)Gal(b1-3)GlcNAc
In short: as §1

[5] = target: GlcNAc(a1-4)Gal(b1-4)GalNAc
In short: as §1

[6] = target: GlcNAc(a1-4)Gal(b1-4)GlcNAc
In short: as §1

[7] = target: GlcNAc(a1-4)Gal(b1-4)GlcNAc(b1-3)Gal(b1-4)Glc
In short: as §1

[8] = target: GlcNAc(a1-4)Gal(b1-4)GlcNAc(b1-3)Gal(b1-4)GlcNAc
In short: as §1

[9] = target: GlcNAc(a1-4)Gal(b1-4)GlcNAc(b1-3)Gal(b1-4)GlcNAc(b1-3)Gal(b1-4)GlcNAc
In short: as §1

[10] = target: GlcNAc(a1-4)Gal(b1-4)GlcNAc(b1-3)Gal(b1-4)[Fuc(a1-3)]GlcNAc(b1-3)Gal(b1-4)[Fuc(a1-3)]GlcNAc
In short: as §1

[11] = target: GlcNAc(a1-6)Gal(b1-4)GlcNAc
In short: as §1

[12] = target: GlcNAc(b1-2)Gal(b1-3)GalNAc
In short: as §1

[13] = target: GlcNAc(b1-2)Gal(b1-3)GlcNAc
In short: as §1

[14] = target: GlcNAc(b1-2)Man(a1-3)[GlcNAc(b1-2)Man(a1-6)]Man(b1-4)GlcNAc(b1-4)GlcNAc
In short: as §1

[15] = target: GlcNAc(b1-2)Man(a1-3)[GlcNAc(b1-2)Man(a1-6)]Man(b1-4)GlcNAc(b1-4)[Fuc(a1-6)]GlcNAc
In short: as §1

[16] = target: GlcNAc(b1-2)Man(a1-3)[GlcNAc(b1-4)][GlcNAc(b1-2)Man(a1-6)]Man(b1-4)GlcNAc(b1-4)GlcNAc
In short: as §1

[17] = target: GlcNAc(b1-2)Man(a1-3)[GlcNAc(b1-4)][GlcNAc(b1-2)Man(a1-6)]Man(b1-4)GlcNAc(b1-4)[Fuc(a1-6)]GlcNAc
In short: as §1

[18] = target: GlcNAc(b1-2)[GlcNAc(b1-4)]Man(a1-3)[GlcNAc(b1-2)Man(a1-6)]Man(b1-4)GlcNAc(b1-4)GlcNAc
In short: as §1

[19] = target: GlcNAc(b1-2)[GlcNAc(b1-4)]Man(a1-3)[GlcNAc(b1-4)][GlcNAc(b1-2)Man(a1-6)]Man(b1-4)GlcNAc(b1-4)GlcNAc
In short: as §1

[20] = target: GlcNAc(b1-2)[GlcNAc(b1-4)]Man(a1-3)[GlcNAc(b1-4)][GlcNAc(b1-2)[GlcNAc(b1-6)]Man(a1-6)]Man(b1-4)GlcNAc(b1-4)GlcNAc
In short: as §1

[21] = target: GlcNAc(b1-2)[GlcNAc(b1-4)]Man(a1-3)[GlcNAc(b1-4)][GlcNAc(b1-2)[GlcNAc(b1-6)]Man(a1-6)]Man(b1-4)GlcNAc(b1-4)[Fuc(a1-6)]GlcNAc
In short: as §1

[22] = target: GlcNAc(b1-2)[GlcNAc(b1-6)]Man(a1-6)[GlcNAc(b1-2)Man(a1-3)]Man(b1-4)GlcNAc(b1-4)GlcNAc
In short: as §1

[23] = target: GlcNAc(b1-2)[GlcNAc(b1-6)]Man(a1-6)[GlcNAc(b1-2)Man(a1-3)]Man(b1-4)GlcNAc(b1-4)[Fuc(a1-6)]GlcNAc
In short: as §1

[24] = target: GlcNAc(b1-2)[GlcNAc(b1-6)]Man(a1-6)[GlcNAc(b1-4)][GlcNAc(b1-2)Man(a1-3)]Man(b1-4)GlcNAc(b1-4)GlcNAc
In short: as §1

GlcNAc(b1-3)Fuc = target: GlcNAc(b1-3)Fuc
In short: as §1

GlcNAc(b1-3)Gal = target: GlcNAc(b1-3)Gal
In short: as §1

[25] = target: GlcNAc(b1-3)Gal(b1-3)GalNAc
In short: as §1

GlcNAc(b1-3)Gal(b1-4)Glc = target: GlcNAc(b1-3)Gal(b1-4)Glc
In short: as §1

[26] = target: GlcNAc(b1-3)Gal(b1-4)GlcNAc
In short: as §1

[27] = target: GlcNAc(b1-3)Gal(b1-4)GlcNAc(b1-2)Man(a1-3)[GlcNAc(b1-3)Gal(b1-4)GlcNAc(b1-2)Man(a1-6)]Man(b1-4)GlcNAc(b1-4)GlcNAc
In short: as §1

[28] = target: GlcNAc(b1-3)Gal(b1-4)GlcNAc(b1-2)Man(a1-3)[GlcNAc(b1-3)Gal(b1-4)GlcNAc(b1-2)Man(a1-6)]Man(b1-4)GlcNAc(b1-4)[Fuc(a1-6)]GlcNAc
In short: as §1

[29] = target: GlcNAc(b1-3)Gal(b1-4)GlcNAc(b1-2)[GlcNAc(b1-3)Gal(b1-4)GlcNAc(b1-6)]Man(a1-6)[GlcNAc(b1-3)Gal(b1-4)GlcNAc(b1-2)Man(a1-3)]Man(b1-4)GlcNAc(b1-4)GlcNAc
In short: as §1

[30] = target: GlcNAc(b1-3)Gal(b1-4)GlcNAc(b1-3)Gal(b1-4)GlcNAc
In short: as §1

[31] = target: GlcNAc(b1-3)Gal(b1-4)GlcNAc(b1-3)Gal(b1-4)GlcNAc(b1-2)Man(a1-3)[GlcNAc(b1-3)Gal(b1-4)GlcNAc(b1-3)Gal(b1-4)GlcNAc(b1-2)Man(a1-6)]Man(b1-4)GlcNAc(b1-4)GlcNAc
In short: as §1

[32] = target: GlcNAc(b1-3)Gal(b1-4)GlcNAc(b1-3)Gal(b1-4)GlcNAc(b1-2)Man(a1-3)[GlcNAc(b1-3)Gal(b1-4)GlcNAc(b1-3)Gal(b1-4)GlcNAc(b1-2)Man(a1-6)]Man(b1-4)GlcNAc(b1-4)[Fuc(a1-6)]GlcNAc
In short: as §1

[33] = target: GlcNAc(b1-3)Gal(b1-4)GlcNAc(b1-3)Gal(b1-4)GlcNAc(b1-2)[GlcNAc(b1-3)Gal(b1-4)GlcNAc(b1-3)Gal(b1-4)GlcNAc(b1-6)]Man(a1-6)[GlcNAc(b1-3)Gal(b1-4)GlcNAc(b1-3)Gal(b1-4)GlcNAc(b1-2)Man(a1-3)]Man(b1-4)GlcNAc(b1-4)[Fuc(a1-6)]GlcNAc
In short: as §1

[34] = target: GlcNAc(b1-3)Gal(b1-4)GlcNAc(b1-3)Gal(b1-4)GlcNAc(b1-3)Gal(b1-4)GlcNAc(b1-2)Man(a1-3)[GlcNAc(b1-3)Gal(b1-4)GlcNAc(b1-3)Gal(b1-4)GlcNAc(b1-3)Gal(b1-4)GlcNAc(b1-2)Man(a1-6)]Man(b1-4)GlcNAc(b1-4)GlcNAc
In short: as §1

[35] = target: GlcNAc(b1-3)Gal(b1-4)GlcNAc(b1-3)Gal(b1-4)GlcNAc(b1-3)Gal(b1-4)GlcNAc(b1-2)Man(a1-3)[GlcNAc(b1-3)Gal(b1-4)GlcNAc(b1-3)Gal(b1-4)GlcNAc(b1-3)Gal(b1-4)GlcNAc(b1-2)Man(a1-6)]Man(b1-4)GlcNAc(b1-4)[Fuc(a1-6)]GlcNAc
In short: as §1

[36] = target: GlcNAc(b1-3)Gal(b1-4)GlcNAc(b1-3)Gal(b1-4)GlcNAc(b1-3)Gal(b1-4)GlcNAc(b1-2)[GlcNAc(b1-3)Gal(b1-4)GlcNAc(b1-3)Gal(b1-4)GlcNAc(b1-3)Gal(b1-4)GlcNAc(b1-6)]Man(a1-6)[GlcNAc(b1-3)Gal(b1-4)GlcNAc(b1-3)Gal(b1-4)GlcNAc(b1-3)Gal(b1-4)GlcNAc(b1-2)Man(a1-3)]Man(b1-4)GlcNAc(b1-4)[Fuc(a1-6)]GlcNAc
In short: as §1

[37] = target: GlcNAc(b1-3)Gal(b1-4)GlcNAc(b1-3)Gal(b1-4)GlcNAc(b1-3)Gal(b1-4)GlcNAc(b1-3)Gal(b1-4)GlcNAc(b1-2)Man(a1-3)[GlcNAc(b1-3)Gal(b1-4)GlcNAc(b1-3)Gal(b1-4)GlcNAc(b1-3)Gal(b1-4)GlcNAc(b1-3)Gal(b1-4)GlcNAc(b1-2)Man(a1-6)]Man(b1-4)GlcNAc(b1-4)GlcNAc
In short: as §1

[38] = target: GlcNAc(b1-3)Gal(b1-4)GlcNAc(b1-3)Gal(b1-4)GlcNAc(b1-3)Gal(b1-4)GlcNAc(b1-3)Gal(b1-4)GlcNAc(b1-2)Man(a1-3)[GlcNAc(b1-3)Gal(b1-4)GlcNAc(b1-3)Gal(b1-4)GlcNAc(b1-3)Gal(b1-4)GlcNAc(b1-3)Gal(b1-4)GlcNAc(b1-2)Man(a1-6)]Man(b1-4)GlcNAc(b1-4)[Fuc(a1-6)]GlcNAc
In short: as §1

[39] = target: GlcNAc(b1-3)Gal(b1-4)GlcNAc(b1-3)Gal(b1-4)GlcNAc(b1-3)Gal(b1-4)GlcNAc(b1-3)Gal(b1-4)GlcNAc(b1-2)[GlcNAc(b1-3)Gal(b1-4)GlcNAc(b1-3)Gal(b1-4)GlcNAc(b1-3)Gal(b1-4)GlcNAc(b1-3)Gal(b1-4)GlcNAc(b1-6)]Man(a1-6)[GlcNAc(b1-3)Gal(b1-4)GlcNAc(b1-3)Gal(b1-4)GlcNAc(b1-3)Gal(b1-4)GlcNAc(b1-3)Gal(b1-4)GlcNAc(b1-2)Man(a1-3)]Man(b1-4)GlcNAc(b1-4)[Fuc(a1-6)]GlcNAc
In short: as §1

[40] = target: GlcNAc(b1-3)Gal(b1-4)GlcNAc(b1-3)Gal(b1-4)GlcNAc(b1-3)GalNAc
In short: as §1

[41] = target: GlcNAc(b1-3)Gal(b1-4)GlcNAc(b1-3)GalNAc
In short: as §1

B1: LTL (Lotus tetragonolobus), P19664 (protein)
chain: VSFNYTEFKDDGSLILQGDAKIWTDGRLAMPTDPLVNNPKTTRSAGRALYATPVPIWDSATGNVASFVTSFNFLFVIRELKYTPTDGLVFFLAPVGTEIPSGSTGGFLGIFDGSNGFNQFVAVEFDSYHNIWDPKSLRSSHVGIDVNSIMSLKAVNWNRVSGSLEKATIIYDSQTNILSVVMTSQNGQITTIYGTIDLKTVLPEKVSVGFSATTGNPEREKHDIYSWSFTSTLKEPEEQA
With B1 the “glycan array binding signal (z-score)” value (GlcA(b1-6)Gal) was -0.25, the “glycan array binding signal (z-score)” value [1] was 0.005 and the “glycan array binding signal (z-score)” value [2] was 0.102. The “glycan array binding signal (z-score)” value [3] was -0.256, the “glycan array binding signal (z-score)” value [4] was -0.263 and the “glycan array binding signal (z-score)” value [5] was 0.03. For the same binder, the “glycan array binding signal (z-score)” value [6] was -0.071, the “glycan array binding signal (z-score)” value [7] was 0.089 and the “glycan array binding signal (z-score)” value [8] was -0.153. The “glycan array binding signal (z-score)” value [9] was -0.229, the “glycan array binding signal (z-score)” value [10] was -0.006 and the “glycan array binding signal (z-score)” value [11] was -0.381. For the same binder, the “glycan array binding signal (z-score)” value [12] was -0.188, the “glycan array binding signal (z-score)” value [13] was -0.533 and the “glycan array binding signal (z-score)” value [14] was -0.3. For the same binder, the “glycan array binding signal (z-score)” value [15] was -0.222, the “glycan array binding signal (z-score)” value [16] was -0.152 and the “glycan array binding signal (z-score)” value [17] was -0.332. The “glycan array binding signal (z-score)” value [18] was -0.144, the “glycan array binding signal (z-score)” value [19] was -0.329 and the “glycan array binding signal (z-score)” value [20] was -0.395. The “glycan array binding signal (z-score)” value [21] was -0.473, the “glycan array binding signal (z-score)” value [22] was -0.167 and the “glycan array binding signal (z-score)” value [23] was -0.121. For the same binder, the “glycan array binding signal (z-score)” value [24] was -0.353, the “glycan array binding signal (z-score)” value (GlcNAc(b1-3)Fuc) was -0.227 and the “glycan array binding signal (z-score)” value (GlcNAc(b1-3)Gal) was -0.327. For the same binder, the “glycan array binding signal (z-score)” value [25] was -0.14, the “glycan array binding signal (z-score)” value (GlcNAc(b1-3)Gal(b1-4)Glc) was -0.196 and the “glycan array binding signal (z-score)” value [26] was -0.209. The “glycan array binding signal (z-score)” value [27] was -0.103, the “glycan array binding signal (z-score)” value [28] was 0.576 and the “glycan array binding signal (z-score)” value [29] was 0.085. For the same binder, the “glycan array binding signal (z-score)” value [30] was -0.231, the “glycan array binding signal (z-score)” value [31] was 1.4 and the “glycan array binding signal (z-score)” value [32] was 0.445. The “glycan array binding signal (z-score)” value [33] was 0.329, the “glycan array binding signal (z-score)” value [34] was 0.019 and the “glycan array binding signal (z-score)” value [35] was 0.283. The “glycan array binding signal (z-score)” value [36] was 0.185, the “glycan array binding signal (z-score)” value [37] was 0.204 and the “glycan array binding signal (z-score)” value [38] was -0.252. For the same binder, the “glycan array binding signal (z-score)” value [39] was 0.216, the “glycan array binding signal (z-score)” value [40] was -0.169 and the “glycan array binding signal (z-score)” value [41] was -0.05.
